From PubChem BioAssay AID651820 (National Center for Advancing Translational Sciences (NCATS), 2012)
In all, about 340,000 compounds went through this assay and about 12,000 (3.5%) were called active. This list was built around the results that the source calls inconclusive (neither active nor inactive); the mix of calls is not that of the screen. The call rests on the fitted dose curve; in most records, active means well fitted inhibition curve with a large enough effect; inconclusive means small, poorly fitted or top-dose-only effect, or another doubt; inactive means no such curve, though single readings can be large or run the other way. Potencies of inconclusive entries are left out as doubtful fits.
On the % scale 0 is the no-effect control and ±100 the full control effect; potency means the concentration at half of the fitted maximal effect; tags describe the fitted curve by direction and shape.

Experiment: qHTS Assay for Inhibitors of Hepatitis C Virus (HCV)
Settings: Huh7.5.1 HCVcc-Cre (HCVcc is cell-culture hepatitis C virus) infection, luciferase reporter, 44 h; activity change, negative = inhibition: at 41.8 µM (top of the series) unless noted
Method in brief: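 Compounds are dispensed onto cells plated 4 h earlier at 1,000 per well, with HCVcc-Cre virus (about 0.5 moi) added next. Following 44 h of culture, luminescent signal is measured for 15 sec after 15 min with substrate at room temperature.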
In the case of CCn1nnnc1SCC(=O)Nc1nc2ccc(OC)cc2s1, the Potency is reported as inconclusive [inhibitor, partial curve]. With COc1cc(SC#N)ccc1N=Cc1c(C)[nH]n(-c2ccc(C)c(C)c2)c1=O the Potency was inconclusive [inhibitor, full curve, poor fit]. In the case of CCCC(=O)Nc1sc(Cc2ccccc2)c(C)c1C(N)=O, the Potency is reported as inconclusive [inhibitor, single point]. For CCN(CC)CCOC(=O)c1ccc(NC(=O)/C=C/c2cccs2)cc1, the Potency was inconclusive [inhibitor, single point]. For O=C(CCNc1cc(Cl)cc(Cl)c1)c1cccs1, the Potency was inconclusive [inhibitor, single point]. With Cc1cccc(/C=N/NC(=O)Cn2nc(C)cc2C)n1 the Potency was inconclusive [inhibitor, partial curve]. For COc1ccc(S(=O)(=O)N2CCN(C(=O)COc3ccccc3)CC2)cc1, the “activity change, negative = inhibition” value was inactive: 11.6%. For O=C(CCCN1C(=O)/C(=C/c2cccc(Br)c2)SC1=S)Nc1ccccn1, the Potency was active: 11.2 µM. For Cc1nc(NC(C)c2ccccc2)c2c3c(sc2n1)CCC3 (centres undefined), the Potency was inconclusive [inhibitor, partial curve]. With COc1cccc2sc(/N=C/N(C)C)nc12 the “activity change, negative = inhibition” value was inactive: 6.78%. With CCc1ccccc1Nc1nn2c(=O)c3ccc(C(=O)NCc4ccccn4)cc3nc2s1 the Potency was inconclusive [inhibitor, partial curve]. With CSc1cccc(NC(=S)NC(=O)CCc2ccccc2)c1 the Potency was inconclusive [inhibitor, single point]. In the case of Nc1ccc2nc(-c3cccc(-c4nc5ccc(N)cc5[nH]4)c3)[nH]c2c1, the “activity change, negative = inhibition” value is reported as inactive: -21%. For O=C(NOCc1ccccc1)c1cccc([N+](=O)[O-])c1, the “activity change, negative = inhibition” value was inactive: 3.65%. With CCOC(=O)Nc1ccc(S(=O)(=O)N2CCOCC2)cc1 the “activity change, negative = inhibition” value was inactive: 1.64%. With CCN(C(=O)COC(=O)c1cccs1)c1c(N)n(Cc2ccccc2)c(=O)[nH]c1=O the “activity change, negative = inhibition” value was inactive: 14.6%. In the case of CC1CN(C(=O)CCC(=O)N2CCN(c3cccc(C(F)(F)F)c3)CC2)c2ccccc2O1 (centres undefined), the Potency is reported as inconclusive [inhibitor, partial curve]. In the case of COCCCNc1ncnc2ccc(C)cc12, the Potency is reported as inconclusive [inhibitor, partial curve]. In the case of CCOC(=O)c1c(-c2ccco2)csc1NC(=O)COC(=O)c1cnccn1, the Potency is reported as inconclusive [inhibitor, single point]. With CCOc1ccc(OC(=O)c2cccc(S(=O)(=O)N3CCN(C)CC3)c2)cc1 the Potency was inconclusive [inhibitor, single point]. For COc1ccccc1NC(=S)N1CCN(c2cccc(C)c2C)CC1, the Potency was inconclusive [inhibitor, single point]. In the case of Cc1cccc(N(CC(=O)NC2CCCC2)C(=O)CS(=O)CC(=O)Nc2ccc3c(c2)OCO3)c1C (centres undefined), the Potency is reported as inconclusive [inhibitor, single point]. For COc1cccc(N(CC(=O)NC2CCCCC2)C(=O)c2snc(C(N)=O)c2N)c1, the Potency was inconclusive [inhibitor, single point]. With O=C(Cn1cnc2ccccc2c1=O)Nc1cccc(S(=O)(=O)N2CCCCC2)c1 the Potency was active: 11.2 µM. In the case of Cc1ccc(S(=O)(=O)Nc2nc3ccccc3nc2Nc2cccc(S(=O)(=O)N3CCCC3)c2)cc1, the Potency is reported as inconclusive [inhibitor, single point]. In the case of Cc1c(C(=O)OC(C)C)sc(NC(=O)C2CCCO2)c1C(=O)OC(C)C (centres undefined), the Potency is reported as inconclusive [inhibitor, full curve]. For CN1CCCN(C(=O)c2cccc3ccccc23)CC1, the “activity change, negative = inhibition” value was inactive: -0.267%. For O=C(NCCc1ccccc1Cl)C1CCC(=O)N(C2CCCCCC2)C1 (centres undefined), the “activity change, negative = inhibition” value was inactive: 10.7%. In the case of COc1ccc(C(=O)Nc2sc(C(=O)N(C)C)c(C)c2C#N)cc1[N+](=O)[O-], the Potency is reported as inconclusive [inhibitor, single point]. With C=CCS(=O)(=O)c1nc2ccccc2s1 the Potency was inconclusive [inhibitor, partial curve, poor fit]. For O=C(NCc1cccc(Cl)c1)C1CCN(S(=O)(=O)c2ccc(F)cc2)CC1, the “activity change, negative = inhibition” value was inactive: 15.1%. For COCCN(CC(=O)Nc1cccc(C)c1C)C(=O)c1oc2c(Cl)cccc2c1C, the Potency was inconclusive [inhibitor, single point]. In the case of O=C1C=CC(=O)N1c1ccccc1N1C(=O)C=CC1=O, the Potency is reported as inconclusive [inhibitor, single point]. With Cc1nc(NC(=O)c2cc3ccccc3o2)sc1C the “activity change, negative = inhibition” value was inactive: -3.61%. In the case of CCCn1c(-c2cc(OC)c(OC)c(OC)c2)nc2nc3ccccc3nc21, the “activity change, negative = inhibition” value is reported as inactive: 1.69%. For Cc1ccc(NC(=S)NC2CCN(Cc3ccccc3)CC2)cc1, the Potency was inconclusive [inhibitor, partial curve]. For O=C1CCCN1CCCNC(=S)Nc1ccccc1, the “activity change, negative = inhibition” value was inactive: 14.5%. With COc1ccc2oc(-c3ccco3)cc(=O)c2c1 the Potency was inconclusive [inhibitor, single point]. With COc1cccc(C(=O)c2c(-c3ccccc3)ncc3cc(OC)c(OC)cc23)c1 the Potency was inconclusive [inhibitor, single point]. With COc1ccc(C(=O)c2cc(C(C)=O)c(Nc3ccccc3)s2)cc1 the Potency was active: 3.16 µM. With CC1CCCCC1NC(=O)c1ccc2c(c1)[nH]c(=O)n2C1CCCC1 (centres undefined) the Potency was inconclusive [inhibitor, single point]. In the case of CC1CC(C)CN(CC(=O)N2CCCc3c2c(=O)oc2ccc(OCc4ccccc4)cc32)C1 (centres undefined), the Potency is reported as active: 11.2 µM. With COc1ccc(Cl)cc1C(=O)O/N=C(\N)c1ccncc1 the Potency was active: 22.4 µM. For CC(C)(C)c1ccc(CN2N=Nc3ccccc3S2(=O)=O)cc1, the Potency was inconclusive [inhibitor, single point]. In the case of O=c1ccc(S(=O)(=O)N2CCCC2)cn1Cc1ccc(F)cc1, the Potency is reported as inconclusive [inhibitor, full curve]. With CC(=O)Nc1ccc(S(=O)(=O)N(C)c2ccc(OCC(=O)Nc3ccccc3C(C)=O)cc2)cc1 the Potency was inconclusive [inhibitor, full curve]. With O=C(Cc1ccc(Cl)cc1)Nc1ccncc1 the Potency was active: 10 µM. In the case of CCN(CC)CCCN(Cc1cc2cc(OC)ccc2[nH]c1=O)C(=O)Nc1ccccc1, the Potency is reported as inconclusive [inhibitor, single point]. For Cc1cc(C(C)(C)C)oc1C(=O)O, the “activity change, negative = inhibition” value was inactive: 2.21%. For CN(C)S(=O)(=O)c1ccc(NC(=O)COc2cccc3c2OC(C)(C)C3)cc1, the Potency was inconclusive [inhibitor, partial curve]. With COc1ccc(CNCCCNCc2ccc(OC)c(OC)c2)cc1OC the Potency was inconclusive [inhibitor, single point]. In the case of Cc1nnc(NC(=O)Cc2cccs2)s1, the “activity change, negative = inhibition” value is reported as inactive: 6.87%. With COc1ccccc1CN(C)C(=O)c1ccc(COc2ccccc2)cc1 the Potency was inconclusive [inhibitor, single point]. For Cc1ccc(-n2nnnc2SCC(=O)Nc2ccccc2N2CCCCC2)cc1C, the Potency was active: 10 µM. For COC(=O)c1cccc2c1-c1ccccc1/C2=N/O, the Potency was inconclusive [inhibitor, single point]. In the case of COc1cccc(CN2CCN(C(=O)Cc3ccccc3OC)CC2)c1, the “activity change, negative = inhibition” value is reported as inactive: -6.85%. In the case of CCCOc1ccc(/C=N/Nc2cc(N3CCOCC3)ncn2)c(O)c1, the Potency is reported as inconclusive [inhibitor, full curve]. With COc1cccc(/C=c2\s/c(=C/C(=O)c3ccc(C)cc3)[nH]c2=O)c1OC the Potency was inconclusive [inhibitor, single point]. With FC(F)Sc1nc2ccccc2[nH]1 the “activity change, negative = inhibition” value was inactive: 4.44%. In the case of Cc1ccc(OCC(=O)N/N=C\c2c(C)[nH]n(-c3ccccc3)c2=O)c([N+](=O)[O-])c1, the Potency is reported as inconclusive [inhibitor, single point]. With CCOc1ccccc1NC(=O)Cn1nnc(C(=O)Nc2ccccc2Cl)c1N the Potency was inconclusive [inhibitor, partial curve]. In the case of CN(C)C(=O)c1cn(-c2ccccc2)nc1-c1cccc([N+](=O)[O-])c1, the Potency is reported as inconclusive [inhibitor, partial curve]. With CCC/C(=N\NC(=O)CNC(=O)/C=C/c1ccco1)c1ccccc1 the Potency was inconclusive [inhibitor, partial curve, poor fit]. With COc1ccccc1NC(=O)COc1coc(CN2CCN(c3ccccc3)CC2)cc1=O the “activity change, negative = inhibition” value was inactive: -14.6%. For Cc1ccc2c(c1)N(CC(=O)Nc1ccccc1F)C(=O)CO2, the “activity change, negative = inhibition” value was inactive: -7.12%. For COc1cccc(N2CCN(Cc3nc(N)nc(Nc4ccccc4)n3)CC2)c1, the Potency was inconclusive [inhibitor, single point]. In the case of COc1ccc(/C=C/C(=O)Nc2ccc(NC(C)=O)cc2)cc1S(=O)(=O)N1CCOCC1, the “activity change, negative = inhibition” value is reported as inactive: -16.5%. In the case of O=C(c1ccc(Cl)cc1)C1CCCN(Cc2cccc3cccnc23)C1 (centres undefined), the Potency is reported as inconclusive [inhibitor, single point]. In the case of CC[n+]1c(/C=C/N(C)c2ccccc2)n(-c2ccccc2)c2ccc(-c3nc4ccccc4s3)cc21, the Potency is reported as active: 5.62 µM. In the case of CCOC(=O)c1cnc2ccc(OC)cc2c1NCc1ccccc1, the Potency is reported as inconclusive [inhibitor, single point]. With COc1ccc(-c2noc(-c3ccco3)n2)cc1OC the Potency was active: 11.2 µM. In the case of N#Cc1cc2c(=O)n3ccccc3nc2n(-c2ccccc2Cl)c1=O, the “activity change, negative = inhibition” value is reported as inactive: 4.04%. For Cc1ccccc1NC(=O)CCS(=O)(=O)c1ccc(Br)cc1, the “activity change, negative = inhibition” value was inactive: 6.21%. For COc1cccc(N2CCN(C(=O)c3ccc(CS(=O)Cc4ccc(Cl)cc4)o3)CC2)c1 (centres undefined), the Potency was inconclusive [inhibitor, single point].
